Data reported in the supplement of paper PMC3334620.
The full ranking holds about 33,000 sequences; the median of “E-score (-0.5 to 0.5)” is about -0.054, and the highest 2% start at about 0.35. This is one part of the list.

What follows are sequences tested against T1, Stb5 (UniProt P38699) (assay: PBM E-score (8-mer binding enrichment) (E-score (-0.5 to 0.5)); higher = stronger / more preferred TF binding; most listed sequences are background and not binding sites). Details: protein concentration: 200 nM; construct: GST-full length.
T1 sequence: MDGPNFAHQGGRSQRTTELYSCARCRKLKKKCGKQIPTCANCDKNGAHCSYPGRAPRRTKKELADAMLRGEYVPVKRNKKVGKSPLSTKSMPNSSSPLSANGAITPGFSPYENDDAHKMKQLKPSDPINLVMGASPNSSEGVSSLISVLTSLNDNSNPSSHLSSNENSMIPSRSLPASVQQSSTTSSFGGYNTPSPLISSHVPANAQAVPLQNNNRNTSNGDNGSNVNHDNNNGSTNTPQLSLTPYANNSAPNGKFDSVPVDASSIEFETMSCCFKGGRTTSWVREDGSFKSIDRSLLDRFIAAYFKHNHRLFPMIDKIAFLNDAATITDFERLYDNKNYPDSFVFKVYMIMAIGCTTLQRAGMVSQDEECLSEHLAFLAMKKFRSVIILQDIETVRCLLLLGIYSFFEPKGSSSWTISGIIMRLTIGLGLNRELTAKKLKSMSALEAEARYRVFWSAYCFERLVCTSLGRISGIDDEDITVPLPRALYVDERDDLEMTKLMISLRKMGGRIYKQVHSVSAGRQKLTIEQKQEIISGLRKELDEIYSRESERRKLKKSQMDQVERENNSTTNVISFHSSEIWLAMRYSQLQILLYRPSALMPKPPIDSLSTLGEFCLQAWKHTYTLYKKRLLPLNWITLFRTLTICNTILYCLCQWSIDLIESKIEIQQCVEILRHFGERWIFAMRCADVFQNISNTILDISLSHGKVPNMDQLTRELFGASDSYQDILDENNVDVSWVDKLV
Experimental: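 Universal 'all 10-mer' protein binding microarrays (Agilent AMADID 015681) probed with GST-tagged S. cerevisiae TFs (full-length or DBD) made by in vitro transcription/translation (PURExpress), about 100-200 nM. Bound TF was detected with fluorescent anti-GST. Each ungapped 8-mer (which stands for itself and its reverse complement) is scored by the PBM enrichment score (E-score), a modified Wilcoxon-Mann-Whitney statistic from -0.5 to +0.5, computed with the Universal PBM Analysis Suite. Scale: above 0.35 generally sequence-specific binding.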

| Sequence | PBM E-score |
| --- | --- |
| GCCGCTAA | 0.296 |
| ATACATGA | -0.191 |
| CGCCAAGA | 0.139 |
| CAATTCTA | -0.176 |
| ACCTGCAA | -0.143 |
| CGACCTTA | 0.175 |
| AAGTTCTA | -0.188 |
| AATAGGTA | -0.154 |
| TTATTGAA | -0.216 |
| CGGTGGCA | 0.299 |
| AGATGTGC | -0.0813 |
| AAAACCAT | 0.0207 |
| AGCACCAG | -0.177 |
| TAACGAGA | -0.104 |
| GCACCACA | -0.0487 |
| CCGCCTCC | 0.21 |
| CCGGCCCG | 0.316 |
| GGTATACA | 0.147 |
| ATAGGAAC | -0.0118 |
| ATACCTTG | -0.0313 |
| AAACAGAG | -0.197 |
| AGGCATAT | -0.237 |
| ACTGCAGG | -0.17 |
| GGGTTCCA | 0.0334 |
| GTGCTATA | -0.0113 |

| Sequence | PBM E-score |
| --- | --- |
| CTTCAAGC | -0.249 |
| GAGCCCTC | -0.312 |
| CAGAGTTA | -0.254 |
| ACGATTGA | -0.102 |
| CCACCCGA | -0.143 |
| CGACCGTA | 0.185 |
| ATAATTTA | 0.0571 |
| ACGTCCAG | -0.158 |
| AGAAGACT | -0.279 |
| CATTTGCG | 0.0176 |
| AATACTCT | -0.0192 |
| ATCCCTCA | -0.13 |
| CTAGCCAA | -0.231 |
| AGTGCGAA | -0.0384 |
| CGTACCCA | -0.111 |
| AGAATCTC | -0.00282 |
| TACGTTAA | -0.019 |
| ATTACGGC | 0.0616 |
| GTTGGAAA | -0.119 |
| GCTCATTA | -0.0727 |
| ATTGTTTG | -0.0353 |
| TCAGTTCA | -0.229 |
| AAGGTAAC | 0.0556 |
| ACTTGCAA | -0.00221 |
| ATGGGCAA | -0.182 |

| Sequence | PBM E-score |
| --- | --- |
| TGGGCACA | -0.265 |
| GTGTGAAC | -0.00609 |
| AACCCTGT | -0.125 |
| AGCCCTTG | -0.274 |
| GATTGCTA | -0.148 |
| GGGAGAAC | -0.0132 |
| TAGATCGA | -0.304 |
| CACTATCC | -0.0703 |
| CCGATGGC | 0.173 |
| AAAAAAGC | -0.0868 |
| GATCGGCA | 0.25 |
| CAATTCTG | -0.155 |
| TGCTAAAA | -0.003 |
| CGCGACCC | 0.0367 |
| TCGACAGA | -0.171 |
| AATGGTCA | -0.0794 |
| GCTGAATA | -0.241 |
| ACGGAAGT | 0.26 |
| CGGATGTC | 0.223 |
| CCGTCACC | 0.289 |
| ACATCAGG | -0.122 |
| AACGTTCT | -0.263 |
| ATGCCATA | -0.249 |
| AGAGGGCT | -0.135 |
| ATTTAGGG | 0.0429 |

| Sequence | PBM E-score |
| --- | --- |
| ACGCATTA | -0.204 |
| AGGATACT | -0.0446 |
| ACCAGCAT | -0.24 |
| AGAATAGA | -0.103 |
| AAGCCGCC | 0.245 |
| AGAGTACC | -0.0547 |
| ACTAAGGG | -0.00506 |
| AATACCTC | -0.017 |
| CTTCTCTA | -0.266 |
| AGCAGTTA | -0.194 |
| AGAACCAT | -0.165 |
| TAATTTAA | 0.00767 |
| GATCTGCA | 0.0505 |
| CATAGTCC | 0.0471 |
| TCTTCTAA | 0.00248 |
| ACGCAAGC | -0.191 |
| ATGATCAC | -0.193 |
| ACGCCGCT | 0.383 |
| CACCGTGA | 0.311 |
| AAACCTAC | -0.153 |
| ACCCGCAG | 0.223 |
| AACATATT | -0.109 |
| GGTCATTA | 0.183 |
| AACACCAT | 0.0943 |
| ACAAAAAT | 0.0108 |

| Sequence | PBM E-score |
| --- | --- |
| AGAAGTGA | -0.118 |
| ATCTTAGC | -0.174 |
| CGGCGTAC | 0.206 |
| ATAACGCG | 0.0524 |
| AACGCAAA | -0.00547 |
| GCATTAAA | -0.0153 |
| CCGAAGGC | 0.146 |
| AGATGGCC | 0.00411 |
| GATAGCGC | 0.0868 |
| ACTACTCG | 0.00137 |
| GGATGAAA | 0.0362 |
| CTTCTAGC | 0.0248 |
| CATGGAAC | -0.196 |
| CTCAAGAA | -0.119 |
| CCACTGCC | -0.142 |
| CGAGGCAA | -0.086 |
| CGAATAAA | -0.0452 |
| TCACTCGA | -0.204 |
| ATCGGTAA | 0.277 |
| AGGCACAG | -0.302 |
| AGCCTTGA | -0.203 |
| CACGGGCG | 0.0573 |
| CTAGGGTC | -0.203 |
| CAGACACA | -0.0304 |
| AGTTGCTA | -0.0374 |

| Sequence | PBM E-score |
| --- | --- |
| CTGAGGCC | 0.133 |
| TGCTAGAA | -0.0141 |
| GTCTCCTA | -0.14 |
| ATTAACTG | -0.0295 |
| GATCGGAA | 0.133 |
| GATAATGC | 0.0588 |
| GAATAAGC | 0.0338 |
| ACAAAGAA | -0.00751 |
| AATCAGCT | -0.203 |
| CAAACCCC | 0.336 |
| CGTGACGC | -0.0945 |
| AACAGCGT | 0.129 |
| CACCCCAC | 0.0573 |
| AGTGTTGG | -0.188 |
| TAGGAAGA | -0.242 |
| CGTTGTTA | 0.191 |
| GAGGCGCC | -0.049 |
| CAACTACG | -0.0121 |
| CGAGTACG | -0.0874 |
| CGCTGGGA | -0.0625 |
| AAATATCG | 0.151 |
| TCTGTAAA | -0.0125 |
| ACCAAGGT | 0.0176 |
| ACCATCCT | -0.215 |
| GCTGGCCA | -0.165 |

| Sequence | PBM E-score |
| --- | --- |
| ACAGACAA | -0.131 |
| CCTACTTA | -0.16 |
| AGACGGGC | 0.248 |
| AAGTCTCT | -0.338 |
| GAGCTCAC | -0.108 |
| CAATGTGA | -0.186 |
| ATCTACAG | -0.128 |
| TATGCGGA | 0.182 |
| ACGGATTC | 0.139 |
| CGCACGCA | 0.0766 |
| AGCTCGGA | -0.0221 |
| CAGGGACA | -0.216 |
| GTATTTCA | -0.0614 |
| AGTGTAGA | -0.248 |
| TACCCCTA | -0.156 |
| CGCAAGCG | -0.00054 |
| GGTCGGAC | 0.369 |
| AGCCGTTC | 0.0213 |
| TAGATCTA | 0.0243 |
| ATATCAAA | 0.0172 |
| CTGCATTC | -0.386 |
| AAGTCGTC | -0.139 |
